# Test results as given in the supplement of paper PMC3334620.
# Whole data set: some 33,000 sequences, median “E-score (-0.5 to 0.5)” near -0.035, cut for the highest 2% near 0.34. The list shows a part of the results.
# Target: T1, Mot3 (UniProt P54785)
# T1 sequence: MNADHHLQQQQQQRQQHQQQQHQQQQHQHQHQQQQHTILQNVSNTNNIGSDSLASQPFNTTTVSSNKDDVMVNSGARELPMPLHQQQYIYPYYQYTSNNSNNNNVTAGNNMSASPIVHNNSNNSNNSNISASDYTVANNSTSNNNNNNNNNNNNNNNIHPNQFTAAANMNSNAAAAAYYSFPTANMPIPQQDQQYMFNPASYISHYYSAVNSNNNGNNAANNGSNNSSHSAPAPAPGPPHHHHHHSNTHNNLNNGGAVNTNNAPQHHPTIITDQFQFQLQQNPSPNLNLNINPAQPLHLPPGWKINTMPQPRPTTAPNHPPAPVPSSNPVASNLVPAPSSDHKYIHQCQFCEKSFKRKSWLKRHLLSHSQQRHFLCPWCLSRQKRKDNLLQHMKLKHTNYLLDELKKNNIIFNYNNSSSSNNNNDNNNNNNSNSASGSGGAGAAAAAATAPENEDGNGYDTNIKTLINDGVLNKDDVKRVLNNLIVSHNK
# Assay: PBM E-score (8-mer binding enrichment) (E-score (-0.5 to 0.5)); higher = stronger / more preferred TF binding; most listed sequences are background and not binding sites
# Details: protein concentration: 200 nM; construct: GST-full length
# Procedure: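 Universal 'all 10-mer' protein binding microarrays (Agilent AMADID 015681) probed with GST-tagged S. cerevisiae TFs (full-length or DBD) made by in vitro transcription/translation (PURExpress), about 100-200 nM. Bound TF was detected with fluorescent anti-GST. Each ungapped 8-mer (which stands for itself and its reverse complement) is scored by the PBM enrichment score (E-score), a modified Wilcoxon-Mann-Whitney statistic from -0.5 to +0.5, computed with the Universal PBM Analysis Suite. Scale: above 0.35 generally sequence-specific binding.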
row,Sequence,PBM E-score
1,CATCTTGA,0.123
2,ACTGACCG,-0.231
3,AACGCATT,0.174
4,GGAGATAC,-0.137
5,CTTCCCGA,-0.212
6,CGTGACAA,-0.021
7,GGGACGAA,-0.0575
8,CAGGGCGA,-0.0585
9,ATCTTGAG,0.198
10,AGCCCAAC,-0.0305
11,CGTCGCAG,-0.135
12,ATCGACTC,-0.116
13,AGTCATCA,-0.147
14,CAATGATG,0.0393
15,CCCGGTGA,-0.276
16,ACGTAACC,0.169
17,GGATGGTA,0.172
18,GGACATTA,0.0447
19,ATGATTAG,0.0811
20,ATAGGACG,-0.129
21,AGCCACCT,-0.118
22,GGCTACCA,0.0469
23,GATTTCAA,-0.0229
24,TGATAAAA,0.0406
25,GCCGTGAC,-0.0322

row,Sequence,PBM E-score
1,GCATGCGA,0.0389
2,GGTTCTGA,0.135
3,CGTTACGA,0.0257
4,CCCCTCCC,-0.254
5,ATGGCCCA,-0.188
6,TAAAAGTA,0.0712
7,AATCAAGA,0.0723
8,CCAAAACC,-0.0902
9,ACTGTCTG,-0.103
10,AAATAGTA,0.0336
11,GTCAACAA,0.112
12,AGCCAGCC,-0.0717
13,GCCGCCTA,-0.195
14,CGTGGGGC,-0.426
15,AAGCTAAT,-0.0226
16,AGTTATCG,-0.0747
17,CTGTGTAC,0.294
18,ACCAACAT,0.29
19,CTATCGAG,-0.169
20,CCGTACTC,-0.203
21,GGTCACCA,-0.227
22,CCAGCGAA,-0.151
23,CAGATCCA,-0.149
24,CAGGTGAA,0.079
25,ACTGTAAA,0.191

row,Sequence,PBM E-score
1,AAACCAAA,0.18
2,CATAAGAC,-0.0242
3,ATGGGTAG,-0.185
4,TGACCGAA,-0.126
5,GGCAGTAA,-0.0832
6,GCAGCACA,-0.144
7,ACCCGGAG,-0.004
8,GCCGACAC,-0.00156
9,GAGGATTA,0.0124
10,CTTCGATA,-0.0798
11,GAACTTGC,0.194
12,CCCGAAAA,0.0841
13,AGTGTGCC,0.355
14,CGGGGGTA,-0.123
15,GCCTGCCA,0.195
16,CATGTACC,0.255
17,AGGCTAAT,-0.0899
18,CACGCTTA,0.174
19,AATGCTGT,0.0173
20,ACGGGCTA,-0.0255
21,GCTTGCAA,0.125
22,TAATCTCA,0.00851
23,CCGCGACG,-0.246
24,ACATGGCG,0.163
25,AAGTTAAA,0.219

row,Sequence,PBM E-score
1,ATAGGTAG,0.109
2,CTTCTGAA,-0.192
3,AGACCGAG,0.0195
4,GCGAATAA,0.051
5,AAGTCCAG,-0.0785
6,CCAGGGCC,-0.154
7,GGAATGGA,-0.122
8,ACTTAAGC,0.00182
9,CGGGACGA,-0.174
10,AAAAAGAG,-0.0762
11,AATTCTAC,0.106
12,ACGATAAG,-0.105
13,CTGGGAAG,-0.17
14,AAAGGGCC,-0.132
15,CTGAGAAC,0.0275
16,CAAATGTC,-0.0375
17,TCATTTCA,0.0512
18,ATTGGCGC,-0.0773
19,ATGCACCC,-0.156
20,ACATGGAC,0.265
21,AGCCCACA,-0.164
22,CGGCATTC,-0.249
23,GGACAAAA,-0.0303
24,GGGGTATA,-0.0983
25,CACTCGAC,-0.0983

row,Sequence,PBM E-score
1,AAAGGACT,-0.211
2,GCCCGCAA,-0.0432
3,GTTCGCCA,-0.103
4,ATCATCAT,-0.116
5,GAATAGGA,0.154
6,CATCAAAA,-0.109
7,AAACTAAG,0.0831
8,ACAGATAT,-0.00474
9,ACGTTTCG,0.0515
10,CGGATCTA,0.0161
11,CTCTTACA,0.159
12,CGGAGCAA,-0.132
13,ATGTAAAC,0.414
14,ACACGCCA,0.226
15,ACTCCCGC,-0.25
16,TAGAGCGA,-0.107
17,AGCTGTCC,-0.181
18,ACTAAAAC,0.0977
19,TACGAAAA,0.0579
20,CGTCACCA,-0.356
21,AAACCTGC,-0.0203
22,CCCCGACC,-0.257
23,CGGCAACA,0.0868
24,AATAATGC,0.16
25,GGGTGTCA,-0.0655

row,Sequence,PBM E-score
1,TACGCCTA,0.107
2,AGAGTTTG,0.0686
3,ATCCTTAG,0.0242
4,ATCTCACG,-0.154
5,GGCTATAA,0.0956
6,AGATAGAT,-0.179
7,ACCACAGG,-0.0579
8,ATCCCGCC,-0.205
9,GCAACAGA,0.0208
10,AACCTCAT,-4e-05
11,AGGCTCAA,0.143
12,CGCAATTC,-0.0703
13,ACGCGTAA,0.317
14,ATGAATGG,-0.0783
15,CAAAGCGC,-0.213
16,ACCCGGAT,-0.299
17,CGGACCAG,-0.16
18,ACACGGCG,0.255
19,CGGGCCTA,-0.105
20,GACGAGCC,-0.12
21,GAACTTTA,0.0429
22,CATTGATC,-0.106
23,ATGTATAC,0.335
24,ACGACCCA,-0.102
25,GCATGCTA,-0.0217

row,Sequence,PBM E-score
1,CGGCCACA,-0.234
2,AATGAACA,0.155
3,GTATACGA,0.0121
4,GGCACGCC,0.237
5,CATTTTCC,0.0741
6,TTAAACAA,0.153
7,CATCCGGG,-0.188
8,CAAAAGGC,0.209
9,GTTCCCGA,0.049
10,AAGGACTG,-0.167
11,GCCCTAAC,0.0795
12,CTCATGGC,-0.227
13,TAGCTATA,-0.0969
14,CCAAAGCC,-0.00526
15,CCGTCTAG,-0.0693
16,ACACAGTC,0.144
17,GTCTCTAA,-0.157
18,AACCGCAA,-0.0523
19,ACTACATA,0.325
20,CTGATGCC,0.215
21,CTTTCTCC,-0.177
22,CTAATCAC,0.0311
